Results published in PMC4336329 (PLoS ONE, 2015).
The campaign covered roughly 310,000 compounds. About 2,200 (0.71%) showed an effect of 50% or more. The effect is printed as a negative number. The list shows a part of the results.

These compounds were tested against human ether-à-go-go-related gene (hERG) potassium channel (human, UniProt Q12809) (assay: primary screen, population patch clamp on CHO cells stably expressing hERG).
Chain of human ether-à-go-go-related gene (hERG) potassium channel (Q12809 whole entry, looked up): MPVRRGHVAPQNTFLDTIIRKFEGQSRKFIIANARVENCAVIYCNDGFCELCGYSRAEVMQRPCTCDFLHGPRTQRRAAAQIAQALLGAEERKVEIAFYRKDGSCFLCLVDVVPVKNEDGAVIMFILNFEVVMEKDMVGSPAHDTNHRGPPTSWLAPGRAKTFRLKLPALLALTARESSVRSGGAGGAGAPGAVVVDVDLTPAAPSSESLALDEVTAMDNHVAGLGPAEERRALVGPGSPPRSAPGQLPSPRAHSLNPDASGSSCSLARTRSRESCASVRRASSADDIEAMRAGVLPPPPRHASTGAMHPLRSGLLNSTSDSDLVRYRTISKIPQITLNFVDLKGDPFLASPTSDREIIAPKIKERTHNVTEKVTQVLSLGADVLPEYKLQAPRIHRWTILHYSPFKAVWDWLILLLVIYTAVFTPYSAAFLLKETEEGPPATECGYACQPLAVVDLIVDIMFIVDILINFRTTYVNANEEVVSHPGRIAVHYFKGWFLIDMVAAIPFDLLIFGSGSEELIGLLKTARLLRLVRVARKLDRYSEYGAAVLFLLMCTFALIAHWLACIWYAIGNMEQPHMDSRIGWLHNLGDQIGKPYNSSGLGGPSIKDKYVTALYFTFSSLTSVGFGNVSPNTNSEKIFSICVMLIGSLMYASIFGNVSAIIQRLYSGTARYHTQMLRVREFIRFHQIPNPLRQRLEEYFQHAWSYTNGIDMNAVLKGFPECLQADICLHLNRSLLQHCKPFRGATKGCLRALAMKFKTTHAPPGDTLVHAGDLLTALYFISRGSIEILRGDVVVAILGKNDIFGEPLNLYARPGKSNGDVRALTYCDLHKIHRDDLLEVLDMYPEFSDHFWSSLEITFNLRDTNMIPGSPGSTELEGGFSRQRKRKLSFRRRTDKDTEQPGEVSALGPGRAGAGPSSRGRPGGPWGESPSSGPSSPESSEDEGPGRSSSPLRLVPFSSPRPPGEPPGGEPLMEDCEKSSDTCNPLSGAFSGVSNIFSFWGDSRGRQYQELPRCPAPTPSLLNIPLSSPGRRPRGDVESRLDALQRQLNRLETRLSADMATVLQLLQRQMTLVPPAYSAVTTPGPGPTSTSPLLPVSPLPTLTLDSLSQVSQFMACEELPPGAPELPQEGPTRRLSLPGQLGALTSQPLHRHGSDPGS

SMILES | hERG current change (%, negative = inhibition) at 1uM
CCC(C)n1c(-c2ccco2)nc2nc3ccccc3nc21 (centres unmarked) | 6.96%
CC(C)CCN(C(=O)C1CCCC1)c1c(N)n(Cc2ccccc2)c(=O)[nH]c1=O | 5.93%
CCOC(=O)C1=C(O)C(=O)N(c2ccc(S(N)(=O)=O)cc2)C1c1ccccc1 (centres unmarked) | 12.9%
Cc1cc(NC(=O)CN2C(=O)CC(c3ccco3)Sc3ccccc32)no1 (centres unmarked) | -17.8%
COc1ccc(Nc2cc(C)nc(N3CCN(C(=O)c4ccc5c(c4)OCO5)CC3)n2)cc1 | 7.75%
CC1N(C)c2cccc3cccc(c23)N1C | 0.571%
CCn1c(COc2cccc(OC)c2)nnc1SCC(=O)Nc1cccc(OC)c1 | -1.46%
O=C(O)c1ccc(NS(=O)(=O)c2ccc(NC(=O)c3ccccc3Cl)cc2)cc1 | 13.3%
O=C1Nc2cccnc2N(C(=O)CCl)c2ccccc21 | 13.1%
O=C(Nc1ccc(S(=O)(=O)N2CCOCC2)cc1)c1ccccc1Br | 10.6%
Cc1ccc(OCC(=O)N2CCN(c3ccc([N+](=O)[O-])c(N4CCOCC4)c3)CC2)cc1 | -3.05%
CCOC(=O)N(C)OC(=O)Nc1ccc(Cl)c(Cl)c1 | -6%
O=[N+]([O-])c1ccccc1Oc1ccc(Cl)c2cccnc12 | 8.94%
CNC(=S)Nc1ccc(Nc2ccccc2)cc1 | 12.8%
O=C1/C(=C/Nc2cccc([N+](=O)[O-])c2)CCc2ccccc21 | 1.17%
CSc1nc2c(cc1C#N)C(=O)CC(C)(C)C2 | -2.19%
CC(O)c1nc2ccccc2n1CCOc1ccccc1 (centres unmarked) | 12.1%
Cc1cc(SCC(=O)Nc2cccc(S(=O)(=O)NC3=NCCCCC3)c2)c(C)cc1Br | 2.94%
O=C(Cn1cnc2ccccc2c1=O)NCc1ccco1 | 19.9%
COc1ccc(CCC(=O)Nc2nnc(C(F)(F)F)s2)cc1 | 10.3%
CCc1ccc(NC(=O)C(=O)NCCN2CCN(S(C)(=O)=O)CC2)cc1 | 18.2%
COc1ccc(NC(=O)CSc2nnc(CNC(=O)c3cccs3)o2)c(OC)c1 | 12.1%
Cc1cc(C)n(CCNC(=O)CC2C(=O)NCCN2CC2CCCCC2)n1 (centres unmarked) | 14.5%

SMILES | hERG current change (%, negative = inhibition) at 1uM
CCC(=O)NC(c1ccc([N+](=O)[O-])cc1)c1c(O)ccc2ccccc12 (centres unmarked) | 0.955%
Cc1ccccc1Cn1nc(C)c(NC(=O)C(F)(F)F)c1C | 6.45%
Oc1ccc(C(=S)N2CCN(c3cccc(Cl)c3)CC2)cc1 | 13.9%
Cc1cc(C(=O)Nc2sc(C)c(C)c2C#N)c(C)o1 | 3.39%
CCOC(=O)C1CCN(C(=O)CC2C(=O)N(Cc3ccccc3)C(C)c3nc4ccccc4n32)CC1 (centres unmarked) | 4.09%
CCOC(=O)c1cc(OC(=O)c2cccs2)n(-c2ccccc2)n1 | 4.26%
Cc1nnc(NC(=O)CSc2nccn2-c2ccc(F)cc2)s1 | 3.09%
O=C(Nc1nnc(-c2ccncc2)o1)c1ccc(Br)s1 | 10%
COC(=O)[C@@H]1CC[C@H](C)[C@@H](c2ccc(C)cc2)N1C(=O)c1ccc(/C=N/O[C@H](C)c2cn([C@@H]3COC[C@H]3O)nn2)cc1 | 1.12%
COc1ccc(CNCCC(c2ccc(OC(C)C)cc2)C(C)C)cc1OC (centres unmarked) | -43.2%
CSc1nsc(SCC(=O)Nc2ccccc2)n1 | 10.8%
COc1ccc(-c2c[n+](CC(=O)N3c4ccccc4Sc4ccccc43)c3n2CCC3)cc1.[Cl-] | 10.4%
CNS(=O)(=O)c1ccc(C(=O)NCC(=O)NC(C)c2cccs2)cc1 (centres unmarked) | 2.15%
O=C(CSc1nc(-c2ccc(F)cc2)cs1)Nc1ccccn1 | 16%
O=C(Nc1ccc2c(c1)OCO2)c1cc(-c2cccnc2)nc2ccccc12 | 12.8%
Cc1ccc(S(=O)(=O)N2CCC(=O)N(CCOC(=O)Nc3ccc(F)cc3)CC2)cc1 | -13.8%
CCOc1ccc(C(=O)Nc2ccccc2OC(F)F)cc1 | 8.71%
CCn1c2ccccc2c2cc(NC(=O)C(=O)NCC3CCCO3)ccc21 (centres unmarked) | 4.03%
Cc1ccc(Cn2ccc(NC(=O)c3cc(-c4ccco4)on3)n2)cc1 | 3.32%
O=C(Nc1cccc(C(F)(F)F)c1)C1CCCN(S(=O)(=O)c2cnc[nH]2)C1 (centres unmarked) | -1.08%
COc1ccc(S(=O)(=O)Nc2ccccc2C(=O)N2CCOCC2)cc1C | 7.95%
Cc1cc(C)nc(Nc2ncc(O)n2-c2ccccc2)n1 | 13.8%
CCS(=O)(=O)N1N=C(c2ccc(NS(C)(=O)=O)cc2)CC1c1ccccc1 (centres unmarked) | -3.64%

SMILES | hERG current change (%, negative = inhibition) at 1uM
COc1ccc2nc(SCC(=O)Nc3ccccc3OC)[nH]c2c1 | 13.6%
CCc1nnc(NC(=O)CCC(=O)N2CCN(c3cccc(Cl)c3)CC2)s1 | 12.2%
CC(=O)Nc1nc(COc2ccccc2)cs1 | 2.62%
CCOC(=O)CN(C)Cc1c[nH]c2ccccc12 | 13.1%
CN(Cc1ccsc1)C(=O)CCc1nnc(CCCc2ccccc2)o1 | 2.61%
COc1cc2c(cc1NC(=O)CSc1ccc(Cl)cc1)oc1ccccc12 | 2.51%
CCOC(=O)c1c(NC(=O)c2ccc(Cl)cc2)csc1C | 3.47%
C#CC[N+](C)(C)CC#Cc1ccc(C)cc1.[Br-] | 11.6%
CCOc1ccc2[nH]c3nc(SCC(=O)NCC4CCCO4)nnc3c2c1 (centres unmarked) | 9.57%
CC1C(=O)N2CCCc3cc(NC(=O)c4ccccc4C(F)(F)F)cc1c32 (centres unmarked) | 3.69%
O=C(NCCN1CCOCC1)c1ccc(N2CCCC2)c([N+](=O)[O-])c1 | -2.75%
N/C(=N\OC(=O)c1ccccc1)c1ccccn1 | 5.7%
O=C(CNS(=O)(=O)c1ccc(C(=O)N2CCOCC2)cc1)N1CCOCC1 | 6.3%
O=C(O)CSc1nnc2c(n1)[nH]c1ccccc12 | 6.46%
CCCc1nnc(NC(=O)CCC(=O)N2CCN(Cc3ccccc3)CC2)s1 | 5.03%
Cc1cc(C(=O)N/N=C/c2ccccc2[N+](=O)[O-])c(C)o1 | 21.8%
CCOC(=O)c1c(C)n(C)c2cc(Br)c(O)c(O)c12 | 8.58%
O=C(CCSc1nnc(-c2ccncc2)o1)Nc1ccc(Cl)cc1 | -2.1%
CCOC(=O)c1cc(-c2cccs2)nn1CCC#N | 6.38%
Cc1ccccc1CSCCNC(=O)CN(c1ccc2c(c1)OCO2)S(C)(=O)=O | 2.72%
CC1Oc2ccccc2N(CC(=O)Nc2ccc(F)cc2)C1=O (centres unmarked) | 6.62%
O=c1cc(-c2ccc(F)cc2)[nH][nH]1 | 13.7%
O=C(O)C1C2C=CC(C2)C1C(=O)OCC1CCCO1 (centres unmarked) | -0.788%

SMILES | hERG current change (%, negative = inhibition) at 1uM
COc1ccc(NC(=O)CSc2nc(N)c(-c3ccccc3)c(=O)[nH]2)cc1 | 5.64%
COc1cccc(C2/C(=C(\O)c3ccc4c(c3)OCCO4)C(=O)C(=O)N2Cc2cccnc2)c1 (centres unmarked) | 14.6%
CCc1noc(C)c1C(=O)Nc1cc(S(=O)(=O)N2CCCCC2)ccc1N(C)C | 4.54%
O=C(C[N+]1(CC#Cc2ccccc2)CCCCC1)c1ccccc1.[Br-] | 9.38%
Cc1nc(C#N)c(NCc2ccc3c(c2)OCO3)o1 | 13%
Cc1cc(C(=O)NCCc2ccc(Cl)cc2)c(C)o1 | 15%
Nc1c(-c2ccccc2)cnn1-c1ccc(C(=O)O)cc1 | 0.454%
O=C(COC(=O)Cn1cc(C(F)(F)F)ccc1=O)Nc1ccccc1 | 16.4%
COc1ccccc1-c1noc(-c2ccccc2C(=O)NCc2ccco2)n1 | 5.15%
CSc1cccc(NC(=O)Nc2ccccc2)c1 | 0.861%
CN(C)/C=N/c1ncc(C(=O)c2ccc(Cl)cc2Cl)s1 | -4.09%
O=C(Nc1ccccc1)C1CCN(S(=O)(=O)c2ccc3c(c2)OCCO3)CC1 | -0.723%
COCCN(C(=O)CCC(=O)Nc1nccs1)C(C(=O)NC(C)(C)C)c1ccc(Cl)cc1 (centres unmarked) | 4.63%
CN(c1nc2nonc2nc1NC1CC1)C1CCOC1 (centres unmarked) | 16.5%
CC(CN1C(C)CCCC1C)OC(=O)c1ccccc1Cl (centres unmarked) | -0.233%
CCc1ccc(/C=N/NC(=O)c2cc(-c3cccc([N+](=O)[O-])c3)n[nH]2)cc1 | -0.852%
CN1CCN(S(=O)(=O)c2ccc(Cc3ccc(S(=O)(=O)N4CCN(C)CC4)cc3)cc2)CC1 | 14.2%
Cc1nn(Cc2ccccc2)c(C)c1C(=O)NC1CCCc2ccccc21 (centres unmarked) | 9.54%
CN(Cc1c(C(=O)N/N=C/c2ccc(O)cc2)nnn1-c1nonc1N)C1CCCCC1 | 8.94%
Cc1cccc(OCCC(=O)OC(C)C(=O)Nc2ccc(Cl)cn2)c1 (centres unmarked) | -9.01%
